From PubChem BioAssay AID1508623 (National Center for Advancing Translational Sciences (NCATS), 2021)
Screen size: about 48,000 compounds; about 450 (0.94%) were called active. Another 19% or so got no clear call; they are omitted. Calls follow the shape of the dose curve; as a rule, active = well fitted inhibition curve with a large enough effect; inconclusive = small, poorly fitted or top-dose-only effect; inactive = no such curve, though single readings can be large or run the other way. Some of the results follow.

Assay: Primary qHTS for Identification of Small Molecule Inhibitors of Huntingtin Promoter Activity; also: nearly all actives have a fitted effect of over 50% in size
Conditions: HEK293 HTT promoter firefly luciferase reporter (activity 0% = vehicle and -100% = no light), 24 h; series mostly up to 57.5 µM; activity change, negative = inhibition: at the top concentration
Summary of the method: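 Quantitative HTS used concentration series of up to 57.5 uM final on HEK293 luciferase reporter cells, 24 h at 37 degrees C. Readout was Dual-Glo firefly luminescence.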

| SMILES | activity change, negative = inhibition |
| --- | --- |
| Cc1ccccc1Cn1cc(NC(=O)c2cc(-c3ccc(Cl)cc3)on2)cn1 | inactive: -2.17% |
| Cc1cccc(OCC(=O)NCC2(N3CCN(C)CC3)CCCCC2)c1 | inactive: -6.56% |
| Cc1[nH]c2ccc(C(=O)NCCc3ccccc3Cl)cc2c1C | inactive: 33.7% |
| Cc1cccc(NC(=O)CN2C(=O)COc3ccc(S(=O)(=O)Nc4ccccc4)cc32)c1C | inactive: -18.2% |
| CCCS(=O)(=O)N1CC(=O)N(c2ccccc2C)C(C)(C(=O)NC2CCCCC2)C1 (stereo unspecified) | inactive: 0.0135% |
| CC(C)OCCCn1c(=O)c2ccccc2n2c(-c3ccc(F)c(F)c3)nnc12 | inactive: -4.2% |
| CCC1CN(C(=O)N2CCC(C(=O)NCc3ccc(C)o3)CC2)c2ccccc2O1 (stereo unspecified) | inactive: -9.08% |
| COc1ccc(Nc2cc(C(=O)NCc3ccccc3)c3ccccc3n2)cc1 | inactive: -4.17% |
| O=C(Nc1cccc(-c2nc3cc(Cl)ccc3o2)c1)c1ccc(F)cc1 | inactive: 2.94% |
| O=C(Cn1c(=O)n(Cc2ccc(F)cc2)c(=O)c2sc3ccccc3c21)NCc1ccccc1 | inactive: -14% |
| Cc1ccc(NC(=O)C2CCC(CNS(=O)(=O)c3cccc4nsnc34)CC2)c(C)c1 (stereo unspecified) | inactive: -5.2% |
| COc1ccc(-c2nc3sc(CCNC(=O)C(=O)Nc4ccc(C)cc4C)c(C)n3n2)cc1 | inactive: -24.3% |
| Cc1nc2ccc(S(=O)(=O)N(CC(=O)Nc3cccc(C)c3C)Cc3ccccc3)cc2s1 | inactive: -23.2% |
| Cc1ccc(C)c(Cn2c(C(C)NC(=O)c3ccccc3)nc3ccccc32)c1 (stereo unspecified) | inactive: -3.45% |
| COc1cccc(OCc2nc3ccccc3n2C)c1 | inactive: 100% |
| O=C(CCn1cnc2onc(-c3ccc(F)cc3)c2c1=O)N1CCN(c2ccccc2)CC1 | inactive: -11.2% |
| O=C(CSC1=Nc2ccccc2C2=NC(Cc3ccccc3)C(=O)N12)Nc1ccccc1 (stereo unspecified) | inactive: -21.1% |
| O=C(NCc1noc2ccccc12)N1CCN(c2ccccc2F)CC1 | inactive: -4.66% |
| CCOc1cccc2cc(-c3nc(-c4ccc(Cl)cc4)c(C)s3)c(=O)oc12 | inactive: -6.44% |
| COc1ccc(Cn2c(CCC(=O)Nc3cccc(Cl)c3)nc3cccnc32)cc1 | inactive: -27.9% |
| Cc1nc(N2CCOCC2)c2c(C(=O)N3CCN(c4ccc(Cl)cc4)CC3)c(C)oc2n1 | inactive: -11% |

| SMILES | activity change, negative = inhibition |
| --- | --- |
| CCOc1ccc(C(c2c(C)[nH]n(-c3ccccc3)c2=O)c2c(C)[nH]n(-c3ccccc3)c2=O)cc1OC | inactive: -29.3% |
| COc1ccc(-c2nsc(NC(=O)c3cccc(OC)c3)n2)cc1 | inactive: -22.6% |
| CCc1ccc(-c2cn3c(n2)sc2cc(C(=O)NCCCc4ccccc4)ccc23)cc1 | inactive: -1.44% |
| CCOc1ccccc1CNC(=O)c1ccc2nc(CCc3ccccc3)oc2c1 | inactive: -26.4% |
| CCc1nn2c(=O)cc(COC(=O)c3cccs3)nc2s1 | inactive: 53.8% |
| COC(=O)c1ccc(CN(Cc2ccc(OC)c(OC)c2)S(=O)(=O)c2ccc(F)c(C(=O)Nc3cc(C)ccc3C)c2)cc1 | inactive: -11.5% |
| C[C@]12CCC(=O)C=C1CC[C@@H]1[C@@H]2C(=O)C[C@@]2(C)[C@H]1CC[C@]2(O)C(=O)CO | inactive: 8.9% |
| CCOc1ccccc1NC(=O)CN1Cc2ccccc2C1=O | inactive: -15.9% |
| CC(Oc1ccccc1)C(=O)Nc1ccc(C(=O)OCc2cc(=O)n3ccsc3n2)cc1 (stereo unspecified) | inactive: -24% |
| Cc1cccc(C(=O)NCC(=O)OCc2cc(=O)n3nc(C)sc3n2)c1 | inactive: 8.36% |
| N#Cc1nc(/C=C/c2ccc(F)cc2)oc1N1CCCCC1 | inactive: -5.8% |
| Cc1cccc(Nc2cc(C)nc3nc(Cc4ccc(Cl)cc4)nn23)c1 | inactive: -21.2% |
| CCCOc1ccccc1C(=O)Nc1ccc(-c2nc3ccc(C)cc3s2)cc1 | inactive: -15.1% |
| Cc1cc(-c2ccccc2)nc2cc(C(=O)Nc3cc(C(F)(F)F)ccc3Cl)nn12 | inactive: 9% |
| COc1ccc(CNC(=O)c2ccc3c(Cl)c4c(nc3c2)CCCC4)c(OC)c1 | inactive: -12.6% |
| Cc1nc(SCC(=O)Nc2ccc(Cl)cc2C(F)(F)F)[nH]c(=O)c1Cc1ccccc1 | inactive: -9.18% |
| Cc1ccc(Cn2cc3c(n2)-c2c(oc(C(=O)Nc4ccc(F)cc4F)c2C)CC3)cc1 | inactive: -0.951% |
| CCN(Cc1ccccc1)Cc1c(O)ccc2c(=O)c(-c3ccccc3Cl)coc12 | inactive: -24.4% |
| CCn1cc(C(=O)NCCCOC(C)C)c(=O)c2cc(S(=O)(=O)N(C)C3CCCCC3)ccc21 | inactive: -23.7% |
| Cc1ccc(C)c(N2CCN(S(=O)(=O)c3ccc4c(c3)n(C)c(=O)c(=O)n4C)CC2)c1 | inactive: -9.41% |
| O=C(NCc1ccccc1)c1ccc(Cn2c(=O)c3cccn3c3cccnc32)cc1 | inactive: 0.626% |

| SMILES | activity change, negative = inhibition |
| --- | --- |
| COc1cc(OC)c(NC(=O)CSCc2nc(-c3ccc(OC)c(OC)c3)no2)cc1Cl | inactive: -0.16% |
| COCCCC/C(=N\OCCN)c1ccc(C(F)(F)F)cc1 | inactive: -6.75% |
| O=C(Nc1cc(-c2nc3cc(Cl)ccc3o2)ccc1Cl)c1cc2ccccc2o1 | inactive: 7.77% |
| Cc1nn(-c2ccc(F)cc2)c(-n2cccc2)c1C(=O)N1CCN(c2ccccc2F)CC1 | inactive: -12.6% |
| O=C(Nc1c(-c2ccc(F)cc2)nc2ccccn12)c1cccc(F)c1 | inactive: -2.07% |
| Cc1c(C(=O)Nc2ccc(F)c(F)c2)oc2ccc(S(=O)(=O)N3CCC4(CC3)OCCO4)cc12 | inactive: -11.3% |
| CC(=O)Nc1ccc(NS(=O)(=O)c2ccc(Cl)s2)cc1 | inactive: -12.3% |
| COc1ccccc1CNC(=O)CN(c1ccc(C)cc1)S(=O)(=O)c1c(C)noc1C | inactive: -17% |
| NC(=O)N1CCC(CC(=O)N2CCC([C@H]3c4ncc(Br)cc4CCc4cc(Cl)cc(Br)c43)CC2)CC1 | inactive: -24.8% |
| Cc1ccc(C2C=C(c3ccc(F)cc3)Nc3nc(CCCO)nn32)cc1 (stereo unspecified) | inactive: -14.1% |
| COc1ccc(OC)c(NC(=O)c2cnc(N3CCCC3)nc2C)c1 | inactive: -5.5% |
| O=C(CN1C(=O)CCc2cc(S(=O)(=O)N3CCOCC3)ccc21)NCc1ccccc1Cl | inactive: -2.53% |
| CCCOc1ccc(NC(=O)CC2C(=O)N(c3ccc(C)cc3)C(=O)N2C2CCCC2)cc1 (stereo unspecified) | inactive: 17% |
| O=C(CSc1nc2c([nH]c3ccccc32)c(=O)n1-c1ccc(F)cc1)NCc1ccco1 | inactive: -20.9% |
| CC1=C(C(=O)Nc2cc(Cl)ccc2C)C(c2ccco2)n2ncnc2N1 (stereo unspecified) | inactive: -4.74% |
| CCSc1nnc2c(n1)OC(c1sccc1C)N(C(C)=O)c1ccccc1-2 (stereo unspecified) | inactive: -30% |
| CCOC(=O)C1CCCN(S(=O)(=O)c2cc3c(cc2C)NC(=O)CO3)C1 (stereo unspecified) | inactive: -26.4% |
| Cc1ccc(OCC(=O)Nc2ccc3nc(SCC(N)=O)sc3c2)cc1 | inactive: 0.184% |
| COc1ccc(Cn2c(=O)c3oc4ccccc4c3n(Cc3cccc(F)c3)c2=O)cc1 | inactive: -15.9% |
